Experimental data reported in the supplement of paper PMC11880418.
Counter-ions that a name gives are not always drawn. This is one part of the list. The data scatter; read single values as rough.

Tests used:
Assay in all cases: ALDHbr (CSC) cell proportion score relative to DMSO vehicle (ratio to DMSO); breast (SUM159) / gastric (MKN45) / pancreatic (PANC1) / colon cancer lines; ALDHbr cells have high ALDH activity and are rich in cancer stem cells (CSC); higher = more CSC (ALDHbr) cells remaining
Details in all cases: 10 µM; 72 h
MKN45 = tested on: MKN45
PANC1 = tested on: PANC1
SUM159 = tested on: SUM159
T84 = tested on: T84
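Further: High-content imaging of ALDEFLUOR-stained cells with Hoechst-labelled nuclei in 384-well plates, triplicate wells, scored as Z-score against 0.1% DMSO vehicle, negative meaning fewer ALDHbr cells.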

SMILES	ALDHbr (MKN45)	ALDHbr (PANC1)	ALDHbr (SUM159)	ALDHbr (T84)
CC(=O)OC1CN2CCC1CC2 (centres undefined) [Aceclidine Hydrochloride]	1.07	1.04	1.46	1.15
CC[C@@H](C(N)=O)N1CCCC1=O [Levetiracetam]	1.15	0.884	1.29	1.17
CC(C)CC(N(C)C)C1(c2ccc(Cl)cc2)CCC1 (centres undefined) [Sibutramine hydrochloride]	1.03	0.91	1.14	0.995
C#C[C@]1(O)CC[C@H]2[C@@H]3CCC4=CC(=O)CCC4=C3C=C[C@@]21CC [Gestrinone]	0.788	0.694	0.548	0.778
CC(=O)[C@H]1CC[C@H]2[C@@H]3CC[C@H]4C[C@H](O)CC[C@]4(C)[C@H]3C(=O)C[C@]12C [Alfaxalone]	1.06	0.906	0.929	0.976
COc1ccc(C(=O)N2CCCC2=O)cc1 [Aniracetam]	0.973	0.858	0.974	0.962
CN(C)[C@@H]1C(=O)C(C(N)=O)=C(O)[C@@]2(O)C(=O)C3=C(O)c4c(O)cccc4[C@@](C)(O)[C@H]3C[C@@H]12 [Tetracycline hydrochloride]	0.608	0.489	0.929	0.873
C=CCC1(CC(C)C)C(=O)NC(=O)NC1=O [Butalbital]	1.05	0.928	1.03	1
CC(Cc1ccc(O)cc1)NCC(O)c1cc(O)cc(O)c1 (centres undefined) [Fenoterol hydrobromide]	1.01	0.743	1.91	0.935
CN1C[C@H](CNC(=O)OCc2ccccc2)C[C@@H]2c3cccc4c3c(cn4C)C[C@H]21 [Metergoline]	0.953	0.833	0.215	0.268
CC(O)(CS(=O)(=O)c1ccc(F)cc1)C(=O)Nc1ccc(C#N)c(C(F)(F)F)c1 (centres undefined) [Bicalutamide]	0.881	0.959	0.964	1.21
CCN(C(C)=O)c1cccc(-c2ccnc3c(C#N)cnn23)c1 [Zaleplon]	1.01	0.853	0.869	0.788
CN[C@@H]1[C@@H](O)[C@@H](O[C@@H]2[C@@H](O)[C@H](O[C@H]3O[C@H](CN)CC[C@H]3N)[C@@H](N)C[C@H]2N)OC[C@]1(C)O.CN[C@@H]1[C@@H](O)[C@@H](O[C@@H]2[C@@H](O)[C@H](O[C@H]3O[C@H]([C@@H](C)N)CC[C@H]3N)[C@@H](N)C[C@H]2N)OC[C@]1(C)O.CN[C@@H]1[C@@H](O)[C@@H](O[C@@H]2[C@@H](O)[C@H](O[C@H]3O[C@H]([C@@H](C)NC)CC[C@H]3N)[C@@H](N)C[C@H]2N)OC[C@]1(C)O [Gentamicine sulfate]	1.18	0.845	1.13	0.927
C=CC[C@]1(O)CC[C@H]2[C@@H]3CCC4=CC(=O)CCC4=C3C=C[C@@]21C [Altrenogest]	0.778	0.811	0.511	1.14
CC[C@H](C)[C@H]1O[C@]2(C=C[C@@H]1C)C[C@@H]1C[C@@H](C/C=C(\C)[C@@H](O[C@H]3C[C@H](OC)[C@@H](O[C@H]4C[C@H](OC)[C@@H](O)[C@H](C)O4)[C@H](C)O3)[C@@H](C)/C=C/C=C3\CO[C@@H]4[C@H](O)C(C)=C[C@@H](C(=O)O1)[C@]34O)O2.CO[C@H]1C[C@H](O[C@H]2[C@H](C)O[C@@H](O[C@@H]3/C(C)=C/C[C@@H]4C[C@@H](C[C@]5(C=C[C@H](C)[C@@H](C(C)C)O5)O4)OC(=O)[C@@H]4C=C(C)[C@@H](O)[C@H]5OC/C(=C\C=C\[C@@H]3C)[C@]54O)C[C@@H]2OC)O[C@@H](C)[C@@H]1O [Avermectin B1]	0.295	1.19	1.21	0.638
COc1ccc(CCN)cc1OC [Homoveratrylamine]	1.05	0.972	1.01	1.18
S=C(NC1CCCCC1)N1CCC(c2cnc[nH]2)CC1 [Thioperamide maleate]	0.901	1.06	0.961	1.02
COc1ccc(CN2CCNCC2)c(OC)c1OC [Trimetazidine dihydrochloride]	0.922	0.915	0.884	0.938
O=c1[nH]c2ccccc2n1C1CCN(CCCC(c2ccc(F)cc2)c2ccc(F)cc2)CC1 [Pimozide]	0.582	1.03	1.06	0.147
CN(C)C(=O)Oc1cccc([N+](C)(C)C)c1 [Neostigmine bromide]	1.09	0.98	1.08	0.933
CC(C)C[C@H](CN)CC(=O)O [Pregabalin]	0.951	0.98	0.776	0.94
C[C@H](N)[C@H](O)c1ccc(O)c(O)c1 [Levonordefrin]	1.03	0.724	2.29	0.949
CC1C=CC=CCCC=CC=CC=CC=CC(OC2OC(C)C(O)C(N)C2O)CC2OC(O)(CC(O)C(O)CCC(O)CC(O)CC(O)CC(=O)OC(C)C(C)C1O)CC(O)C2C(=O)O (centres undefined) [Nystatine]	1.08	0.856	0.997	1.12
CCC1(c2cccc(O)c2)CCCCN(C)C1 (centres undefined) [Meptazinol hydrochloride]	1.11	0.956	0.902	0.949
CN1CCN(C(=O)OC2c3nccnc3C(=O)N2c2ccc(Cl)cn2)CC1 (centres undefined) [Zopiclone]	0.956	0.908	1.19	0.873
NCC1(CC(=O)O)CCCCC1 [Gabapentin]	1.26	0.871	1.14	0.955

SMILES	ALDHbr (MKN45)	ALDHbr (PANC1)	ALDHbr (SUM159)	ALDHbr (T84)
COc1cccc(C2(O)CCCCC2CN(C)C)c1 (centres undefined) [Tramadol hydrochloride]	1.02	0.793	0.976	1.07
CCCCCC[C@H]1C(=O)O[C@H](C)[C@H](NC(=O)c2cccc(NC=O)c2O)C(=O)O[C@@H](C)[C@@H]1OC(=O)CC(C)C [Antimycin A]	0.309	1.13	1.23	0.674
CN1C[C@H](C(=O)N[C@]2(C)O[C@@]3(O)[C@@H]4CCCN4C(=O)[C@H](Cc4ccccc4)N3C2=O)C[C@@H]2c3cccc4[nH]cc(c34)C[C@H]21 [Dihydroergotamine tartrate]	0.807	0.725	0.935	1.01
CC(=O)OCC1=C(C(=O)O)N2C(=O)[C@@H](N)[C@H]2SC1 [Cephalosporanic acid, 7-amino]	1.03	0.912	1.06	0.915
C[C@]12CC[C@@H]3c4ccc(OC(=O)N(CCCl)CCCl)cc4CC[C@H]3[C@@H]1CC[C@@H]2O [Estramustine]	0.797	1.48	1.69	0.147
CCC(=O)O[C@@](Cc1ccccc1)(c1ccccc1)[C@@H](C)CN(C)C [Levopropoxyphene napsylate]	1.22	1.01	0.741	0.924
CCNCC(O)c1cccc(O)c1 (centres undefined) [Etilefrine hydrochloride]	0.956	0.866	2.19	0.811
CC(C)(C)NCC(O)c1ccccc1Cl (centres undefined) [Tulobuterol]	0.939	0.82	2.33	1.03
C[C@]12CC[C@@H](O)C[C@@H]1CC[C@@H]1[C@@H]2CC[C@]2(C)C(=O)CC[C@@H]12 [Androsterone]	0.87	0.884	1.12	1.1
Oc1cc(Cl)ccc1Oc1ccc(Cl)cc1Cl [Triclosan]	1.14	0.996	1.22	1
CC(C)(C)NCC(O)c1cc(Cl)c(N)c(Cl)c1 (centres undefined) [Clenbuterol hydrochloride]	1.03	0.828	2.2	0.964
CCN[C@@H](C)Cc1cccc(C(F)(F)F)c1 [Dexfenfluramine hydrochloride]	1.07	0.894	1.88	1.01
COc1ccc(CCN2CCC(Nc3nc4ccccc4n3Cc3ccc(F)cc3)CC2)cc1 [Astemizole]	0.328	1.07	0	0.0323
CCOC(=O)c1cncn1[C@H](C)c1ccccc1 [Etomidate]	1.11	0.94	1.26	1.15
NCC(CC(=O)O)c1ccc(Cl)cc1 (racemic) [Baclofen (R,S)]	0.905	0.79	0.869	0.958
C[C@]12CCC(=O)C=C1C=C[C@@H]1[C@@H]2CC[C@@]2(C)[C@H]1CC[C@@]2(O)CCC(=O)O [Canrenoic acid potassium salt]	0.854	0.872	1.15	0.959
c1ccc2c(c1)Nc1ccccc1S2 [Phenothiazine]	0.974	0.999	1.35	0.884
CC(=O)O[C@H]1C[C@@H]2CC[C@@H]3[C@H](CC[C@@]4(C)[C@H]3C[C@H]([N+]3(C)CCCCC3)[C@@H]4OC(C)=O)[C@@]2(C)C[C@@H]1[N+]1(C)CCCCC1 [Pancuronium bromide]	1.1	0.894	0.934	1.04
C[N+]1(C)CCCC(OC(=O)C(O)(c2ccccc2)c2ccccc2)C1 (centres undefined) [Mepenzolate bromide]	0.894	0.998	0.904	0.854
CCN(CC)C(C)C(=O)c1ccccc1 (centres undefined) [Amfepramone hydrochloride]	0.942	0.906	1.01	0.921
c1ccc2c(c1)OCC(C1=NCCN1)O2 (centres undefined) [Idazoxan hydrochloride]	0.989	0.805	1.13	0.67
NC(=O)OCCCc1ccccc1 [Phenprobamate]	1.15	0.926	1.16	1.07
CN(C)C(=O)Oc1ccc[n+](C)c1 [Pyridostigmine iodide]	1.09	0.981	1.02	1.12
COc1ccc2c(c1)[C@]13CCCC[C@@H]1[C@H](C2)N(C)CC3 [Dextromethorphan hydrobromide monohydrate]	1.36	1.05	0.752	0.984
CC(C)[N+](C)(CCC(C(N)=O)(c1ccccc1)c1ccccc1)C(C)C [Isopropamide iodide]	0.898	0.877	0.994	1.06
